Measurements from PubChem BioAssay AID1963576 (National Center for Advancing Translational Sciences (NCATS), 2024).
In all, about 46,000 compounds went through this assay and about 60 (0.1%) were called active. Another 3% or so got no clear call; they are omitted. The call rests on the fitted dose curve; in most records, active means well fitted inhibition curve with a large enough effect; inconclusive means small, poorly fitted or top-dose-only effect; inactive means no such curve, though single readings can be large or run the other way. Some of the results follow.

assay: Primary qHTS assay for Inhibitors of ovarian cancer metastasis using an organotypic tumor microenvironment (TME) model.; further: nearly all actives have a fitted effect of over 65% in size;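 on activity change, negative = inhibition: plate controls were DMSO wells for no effect and tomatine positive control wells for full effect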; settings: SKOV3ip1-GFP adhesion/invasion on 3D omental model, fluorescence; series mostly up to 45.8 µM; activity change, negative = inhibition: at the top concentration
Method in brief: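 Primary human omental fibroblast/mesothelial 3D culture pre-formed 48 h. SKOV3ip1-GFP cells added with compounds (0.36-46 umol/L), incubated 2 h RT/16 h 37 C, fixed; GFP cells quantified at 488/509 nm.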

outcome, inactive:
Cn1c(=O)c2c(-c3ccccc3Cl)n(Cc3ccc(Cl)cc3)cc2n(C)c1=O, COc1ccc(N(C(=O)c2ccc(Cl)cc2)S(=O)(=O)c2ccc(C)cc2)cc1, CCOc1ccc(CNCc2c(C(=O)O)n(Cc3ccc(OC)cc3)c3ccccc23)cc1, Cc1ccc(NS(=O)(=O)c2ccc3c(c2)NC(=O)CCS3)cc1F, COC(=O)c1ccccc1NC(=O)Cn1nc(C(F)(F)F)c2c1CCCC2, COc1cc(NC(=O)Cn2c(=O)nc(-c3ccccc3F)c3cc(Cl)ccc32)cc(OC)c1, CC1CCCCN1c1nc(-c2ccc(C(C)(C)C)cc2)nc2ccccc12 (configuration not stated)

Activity change, negative = inhibition, inactive:
CCC1CN(S(=O)(=O)c2ccc3c(c2)NC(=O)CC(=O)N3)c2cc(Cl)ccc2O1 (configuration not stated) 0.292%, COc1ccc(S(=O)(=O)n2nc(-c3ccco3)nc2NCc2ccc(OC)c(OC)c2)cc1 13%, COc1ccccc1Cc1nc2ccccc2nc1SCC(=O)Nc1ccccc1C(F)(F)F -39.2%, COc1ccc(-c2nc3c(C#N)c[nH]n3c2NC2CCCC2)cc1 1.18%, Cc1ccc(N2CC(c3nnc(Cc4ccccc4Cl)o3)CC2=O)cc1 (configuration not stated) 2.12%, CCc1nnc2c(NCc3cccc(OC)c3)nc3ccccc3n12 17.4%, COc1cccc(-c2[nH]c3c(c2-c2c(-n4cccc4)n(C)c(=O)[nH]c2=O)c(=O)[nH]c(=O)n3C)c1 7.96%, CN(C)c1ccc(CNC(=O)CCn2c(=O)c3cccn3c3ccc(F)cc32)cc1 -7.43%, COCCOC(=O)C1=C(C)N=C2SCCC(=O)N2C1c1ccc(OCc2ccccc2)c(OC)c1 (configuration not stated) 10.8%, COCCCNc1nc2c(c(=O)n(C)c(=O)n2C)n1Cc1ccccc1 -7.13%, COc1ccccc1N1CCN(c2cc(C)nc3c(-c4ccc(Cl)cc4)c(C)nn23)CC1 -11.2%, O=C(NCc1ccc2c(c1)CCN2C(=O)c1ccccc1)c1ccc(Br)o1 -6.16%, Cn1c(=O)c2c(ncn2C)n(C)c1=O -6.79%, CCN(CC)S(=O)(=O)c1ccc2c(c1)c(=O)c(C(=O)NCc1ccccc1OC)cn2C 39.3%, Cc1ccc(C(=O)N2CCc3cc(CNC(=O)c4ccnn4C)ccc32)cc1 -12.8%, CCOc1ccccc1C(=O)Nc1nnc(COC)s1 -0.656%, CCOc1ccc(C(=O)N2CCC(c3ccncc3)CC2)cc1 1.39%, CC[C@@H]1C(=O)N(C)c2cnc(Nc3ccc(C(=O)NC4CCN(C)CC4)cc3OC)nc2N1C1CCCC1 -17.3%, CCOC(=O)c1cc(OC(=O)c2cccc(Cl)c2)n(-c2ccccc2)n1 -0.0832%, Cc1ccc(C)c(N2CCN(C(=O)Cn3c(C)c4cnn(-c5ccccc5)c(=O)c4c3C)CC2)c1 40.2%
